Laboratory results reported in the supplement of paper PMC8728848.
The list shows a part of the results.

How the values were obtained:
Assay in all cases: glycan array binding signal (z-score within array); higher = stronger binding
Conditions in all cases: glycan notation: IUPAC condensed, linker removed
[1] = target: Neu5Ac(a2-3)Gal(b1-4)GlcNAc(b1-6)GalNAc
Summary of the method: (§1)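 The binding signal is a Z-score computed within each array. Data were drawn from 3228 arrays in the Consortium for Functional Glycomics database, restricted to those with a known protein sequence. Scores were averaged over arrays of the same protein sequence at different concentrations or buffers, and over linkers, and negative values can be taken as non-binding.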

[2] = target: Neu5Ac(a2-3)Gal(b1-4)GlcNAc(b1-6)[Gal(b1-3)]GalNAc
Summary of the method: as §1

[3] = target: Neu5Ac(a2-3)Gal(b1-4)GlcNAc(b1-6)[Neu5Ac(a2-3)Gal(b1-3)]GalNAc
Summary of the method: as §1

[4] = target: Neu5Ac(a2-3)Gal(b1-4)GlcNAc6S
Summary of the method: as §1

[5] = target: Neu5Ac(a2-3)Gal(b1-4)[Fuc(a1-3)]GlcNAc
Summary of the method: as §1

[6] = target: Neu5Ac(a2-3)Gal(b1-4)[Fuc(a1-3)]GlcNAc(b1-2)Man
Summary of the method: as §1

[7] = target: Neu5Ac(a2-3)Gal(b1-4)[Fuc(a1-3)]GlcNAc(b1-3)Gal
Summary of the method: as §1

[8] = target: Neu5Ac(a2-3)Gal(b1-4)[Fuc(a1-3)]GlcNAc(b1-3)Gal(b1-4)GlcNAc
Summary of the method: as §1

[9] = target: Neu5Ac(a2-3)Gal(b1-4)[Fuc(a1-3)]GlcNAc(b1-3)Gal(b1-4)[Fuc(a1-3)]GlcNAc(b1-3)Gal(b1-4)[Fuc(a1-3)]GlcNAc
Summary of the method: as §1

[10] = target: Neu5Ac(a2-3)Gal(b1-4)[Fuc(a1-3)]GlcNAc(b1-3)GalNAc
Summary of the method: as §1

[11] = target: Neu5Ac(a2-3)Gal(b1-4)[Fuc(a1-3)]GlcNAc(b1-6)[Gal(b1-3)]GalNAc
Summary of the method: as §1

[12] = target: Neu5Ac(a2-3)Gal(b1-4)[Fuc(a1-3)]GlcNAc(b1-6)[Neu5Ac(a2-3)Gal(b1-3)]GalNAc
Summary of the method: as §1

[13] = target: Neu5Ac(a2-3)Gal(b1-4)[Fuc(a1-3)]GlcNAc6S
Summary of the method: as §1

[14] = target: Neu5Ac(a2-3)Gal6S(b1-4)GlcNAc
Summary of the method: as §1

[15] = target: Neu5Ac(a2-3)Gal6S(b1-4)[Fuc(a1-3)]GlcNAc
Summary of the method: as §1

Neu5Ac(a2-3)GalNAc = target: Neu5Ac(a2-3)GalNAc
Summary of the method: as §1

[16] = target: Neu5Ac(a2-3)GalNAc(b1-4)GlcNAc
Summary of the method: as §1

[17] = target: Neu5Ac(a2-3)[GalNAc(b1-4)]Gal(b1-4)Glc
Summary of the method: as §1

[18] = target: Neu5Ac(a2-3)[GalNAc(b1-4)]Gal(b1-4)GlcNAc
Summary of the method: as §1

[19] = target: Neu5Ac(a2-3)[GalNAc(b1-4)]Gal(b1-4)GlcNAc(b1-3)GalNAc
Summary of the method: as §1

[20] = target: Neu5Ac(a2-3)[Neu5Ac(a2-6)]GalNAc
Summary of the method: as §1

Neu5Ac(a2-6)Gal = target: Neu5Ac(a2-6)Gal
Summary of the method: as §1

[21] = target: Neu5Ac(a2-6)Gal(b1-3)GlcNAc(b1-3)[Gal(b1-4)GlcNAc(b1-6)]Gal(b1-4)Glc
Summary of the method: as §1

Neu5Ac(a2-6)Gal(b1-4)Glc = target: Neu5Ac(a2-6)Gal(b1-4)Glc
Summary of the method: as §1

[22] = target: Neu5Ac(a2-6)Gal(b1-4)GlcNAc
Summary of the method: as §1

[23] = target: Neu5Ac(a2-6)Gal(b1-4)GlcNAc(b1-2)Man
Summary of the method: as §1

[24] = target: Neu5Ac(a2-6)Gal(b1-4)GlcNAc(b1-2)Man(a1-3)Man(b1-4)GlcNAc(b1-4)GlcNAc
Summary of the method: as §1

[25] = target: Neu5Ac(a2-6)Gal(b1-4)GlcNAc(b1-2)Man(a1-3)[Gal(b1-4)GlcNAc(b1-2)Man(a1-6)]Man(b1-4)GlcNAc(b1-4)GlcNAc
Summary of the method: as §1

[26] = target: Neu5Ac(a2-6)Gal(b1-4)GlcNAc(b1-2)Man(a1-3)[GlcNAc(b1-2)Man(a1-6)]Man(b1-4)GlcNAc(b1-4)GlcNAc
Summary of the method: as §1

[27] = target: Neu5Ac(a2-6)Gal(b1-4)GlcNAc(b1-2)Man(a1-3)[GlcNAc(b1-4)][Neu5Ac(a2-6)Gal(b1-4)GlcNAc(b1-2)Man(a1-6)]Man(b1-4)GlcNAc(b1-4)GlcNAc
Summary of the method: as §1

B1: rEtpA (Escherichia coli) (protein)
chain: MNRIYKLKFDKRRNELVVVSEITTGVGNAKATGSVEGEKSPRRGVRAMALSLLSGMMIMAHPAMSANLPTGGQIVAGSGSIQTPSGNQMNIHQNSQNMVANWNSFDIGKGNTVQFDQPSSSAVALNRVVGGGESQIMGNLKANGQVFLVNPNGVLFGEGASVSTSGFVASTRDIKNDDFMNRRYTFSGGQKAGAAIVNQGELTTNAGGYIVLAADRVSNSGTIRTPGGKTVLAASERITLQLDNGGLMSVQVTGDVVNALVENRGLVSARDGQVYLTALGRGMLMNTVLNVSGVVEASGMHRQDGNIVLDGGDSGVVHLSGTLQADNASGQGGKVVVQGKNILLDKGSNITATGGQGGGEVYVGGGWQGKDSNIRNADKVVMQGGARIDVSATQQGNGGTAVLWSDSYTNFHGQISAKGGETGGNGGRVETSSHGNLQAFGTVSASAKKGKAGNWLLDSADITIVNGSNVSKTETTQSPPHTQFAPTAAGSAVSNTSINNRLNNGTSVTILTHRTRTGTAQGGNITVNAAINKSNGSDVNLTLQAGGNITVNNSITSTEGKLNVNLSGARTSNGSITISNNANITTNGGDITVGTTNTSNRVNISINNTTLNASNGNIQLTGTGTDSGILFAGNNRLTASNIALTGNSTSGNAINLTGTATLNATNNITLTGSSTSGNAINLKGNNTLTASNITLTGESTSGNAINLTDTTGTTTLNATNNITMQGTRVQIKHSNITAGNFALNATVAGSEISNTTLTATNNINLAAKTNSASSGVYLKDARITSTNGSITANGTATANGKATHLDGNVTLNASNGRIKLTGNGHGSASGILFAGNNRLTASNIALTGNSTSGNAINLTGTATLNATNDITLTGSSTSGNAINLTGTATLNATNNITLTGSSTSGNAINLKGNNTLTASNITLTGESTSGNAINLTDTTGTTTLNATNNITMQGTRVQIKHSNITAGNFALNATVAGSEISNTTLTATNNINLAAKTNSASSGVYLKDARITSTNGSITANGTATANGKATHLDGNVTLNASNGRIKLTGNGHGSASGILFAGNNRLTASNIALTGNSTSGNAINLTGTATLNATNDITLTGSSTSGNAINLTGTATLNATNNITLTGSSTSGNAINLKGNNTLTASNITLTGESTSGNAINLTDTTGTTTLNATNNITMQGTRVQIKHSNITAGNFALNATVAGSEISNTTLTATNNINLAAKTNSASSGVYLKDARITSTNGSITANGTATANGKATHLDGNVTLNASNGRIKLTGNGHGSASGILFAGNNRLTASNIALTGNSTSGNAINLTGTATLNATNDITLTGSSTSGNAINLTGTATLNATNNITLTGSSTSGNAINLKGNNTLTASNITLTGESTSGNAINLTDTTGTTTLNATNNITMQGTRVQIKHSNITAGNFALNATVAGSEISNTTLTATNNINLAAKTNSASSGVYLKDARITSTNGSITTNGTATANGKATHLDGNVTLNASNGRIKLTGNGHGSASGILFAGNNRLTASNIALTGNSTSGNAINLTGTATLNATNDITLTGSSTSGNAINLTGTATLNATNNITLTGSSTSGNAINLKGNNTLTASNITLTGESTSGNAINLTDTTGTTTLNATNNITMQGTRVQIKHSNITAGNFALNATVAGSEISNTTLTATNNINLAAKTNSASSGVYLKDARITSTNGSITANGTAPANDNATYLDGNVTLNASNGSIKLTGNGNGSTSGILFAGNNTLTASNITLTGNSEVYWQKLGPEQKLISEEDLNSAVDHHHHHH
[1]
  glycan array binding signal (z-score): -0.357
[2]
  glycan array binding signal (z-score): -0.372
[3]
  glycan array binding signal (z-score): -0.389
[4]
  glycan array binding signal (z-score): -0.347
[5]
  glycan array binding signal (z-score): -0.389
[6]
  glycan array binding signal (z-score): -0.312
[7]
  glycan array binding signal (z-score): -0.332
[8]
  glycan array binding signal (z-score): -0.431
[9]
  glycan array binding signal (z-score): -0.322
[10]
  glycan array binding signal (z-score): 0.058
[11]
  glycan array binding signal (z-score): -0.264
[12]
  glycan array binding signal (z-score): -0.011
[13]
  glycan array binding signal (z-score): -0.018
[14]
  glycan array binding signal (z-score): 0.188
[15]
  glycan array binding signal (z-score): 0.519
Neu5Ac(a2-3)GalNAc
  glycan array binding signal (z-score): -0.34
[16]
  glycan array binding signal (z-score): -0.259
[17]
  glycan array binding signal (z-score): -0.136
[18]
  glycan array binding signal (z-score): -0.341
[19]
  glycan array binding signal (z-score): -0.345
[20]
  glycan array binding signal (z-score): -0.352
Neu5Ac(a2-6)Gal
  glycan array binding signal (z-score): 8.28
[21]
  glycan array binding signal (z-score): -0.416
Neu5Ac(a2-6)Gal(b1-4)Glc
  glycan array binding signal (z-score): 0.468
[22]
  glycan array binding signal (z-score): -0.384
[23]
  glycan array binding signal (z-score): -0.359
[24]
  glycan array binding signal (z-score): 0.754
[25]
  glycan array binding signal (z-score): -0.368
[26]
  glycan array binding signal (z-score): 0.264
[27]
  glycan array binding signal (z-score): 0.077
